In the supplement of paper PMC10126150:
Values marked as one replicate rest on one cluster of the flow cell; about a third of the high ones do not repeat.

Test system: ATP
Test: switch fluorescence ratio, 500 uM ATP over buffer (Cy3 cluster intensity, sum of 5 cycles each) (fold (ratio)); higher = stronger signal-on switching upon ATP binding; sequences stand for … in TCGTCGGCAGCGTCAGATGTGTATAAGAGACAGTTTTTTTTTTTTTTTTTTTTTTTTT…TC
Conditions: aptamer strand: ATP DNA aptamer (quencher-CACCTGGGGGAGTATTGCGGAGGAAGG + anchor), 100 nM annealed; ATP concentration: 500 uM; one replicate
Outline: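 Exposure to 500 uM ATP lasted 15 min at 22 °C before imaging, and a selection-buffer image was taken beforehand, for Cy3-labelled switching-strand clusters on a modified Illumina MiSeq flow-cell annealed to 100 nM quencher-labelled ATP aptamer. Five buffer/ATP cycles were run with NaOH stripping and re-annealing between them. The fluorescence ratio per cluster is summed target-cycle over summed buffer-cycle Cy3 intensity, averaged per switch-domain sequence. Clusters outside 100-1000 RFU were excluded.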

Sequence | switch fluorescence ratio
ATTAAACATA | 1.01
ATTAAAGAC | 0.991
ATTAAAGCGC | 0.977
ATTAAAGGC | 1.08
ATTAAATTTA | 1.02
ATTAACACTG | 1.2
ATTAACCTA | 1.04
ATTAACTTGG | 1
ATTAAGAATA | 0.998
ATTAAGTTC | 1.02
ATTAATATGC | 1.07
ATTACATGAC | 1.16
ATTACCCTGG | 1.05
ATTACCGGAC | 1.76
ATTACCTAGG | 1.03
ATTACGATGA | 1
ATTACGCCGA | 1.06
ATTACGCTAG | 1.06
ATTACGCTTG | 1.02
ATTACTCATA | 1.09
ATTACTCGGG | 1.02
ATTAGAAACG | 1.01
ATTAGATGCC | 0.994
ATTAGCAAGT | 1.05
ATTAGCCACG | 1.04
ATTAGCGGT | 0.987

Sequence | switch fluorescence ratio
ATTAGGTATT | 1.01
ATTATATCG | 1
ATTATCAAGC | 1.03
ATTATCAGTG | 0.962
ATTATCCAAT | 1.01
ATTATCTCCT | 1.05
ATTATGGGGC | 0.995
ATTCAACTGG | 1.03
ATTCACTTAA | 1.03
ATTCAGATAA | 0.972
ATTCATTAAT | 1.01
ATTCATTAGA | 0.978
ATTCCACACA | 1.08
ATTCCAGGCT | 1.04
ATTCCCAACG | 1.02
ATTCCGCTGT | 3.05
ATTCCTAATT | 1
ATTCGACTG | 0.983
ATTCGAGTGG | 0.996
ATTCGCAGAT | 1.06
ATTCGCGTAG | 1.02
ATTCGGGACG | 0.977
ATTCGTGTCT | 1.02
ATTCTACCGT | 0.987
ATTCTATAAG | 0.958
ATTCTATTCC | 1.04

Sequence | switch fluorescence ratio
ATTCTGATCG | 1.03
ATTCTTGTCA | 0.993
ATTGAAAACT | 1.04
ATTGAAACGT | 1.08
ATTGACTGCC | 1.17
ATTGAGTTCG | 0.969
ATTGCAGTCG | 1.03
ATTGCCATTC | 0.967
ATTGCGATAA | 1.05
ATTGCTTGAA | 1.05
ATTGCTTTAA | 1.03
ATTGGAACAG | 0.998
ATTGGACTTA | 1.07
ATTGGATGGC | 1.04
ATTGGCATAC | 2.28
ATTGGCCTGT | 1
ATTGGTTAAG | 1.02
ATTGGTTACC | 1.02
ATTGGTTCAA | 1.04
ATTGTATAGG | 0.989
ATTGTATCAC | 0.983
ATTGTCGGGT | 1.12
ATTGTGAAT | 0.968
ATTGTGACGT | 1.04
ATTGTGCAG | 1.01
ATTGTGGAAA | 1.01

Sequence | switch fluorescence ratio
ATTGTGGCTT | 1.03
ATTGTGGGTA | 0.981
ATTGTTATC | 0.965
ATTTAAAGAG | 1.03
ATTTAAGTAG | 1.02
ATTTAATTCA | 0.976
ATTTACCAGT | 1.1
ATTTACTTC | 1.06
ATTTAGGAG | 1.01
ATTTAGGCCT | 0.999
ATTTAGGCGG | 1.02
ATTTATACGA | 1.03
ATTTATACT | 0.976
ATTTATCACG | 0.996
ATTTATGCCT | 1.06
ATTTCAACAC | 1.1
ATTTCAGAG | 1
ATTTCCAGGC | 1.35
ATTTCCGCGA | 4.15
ATTTCCGTAT | 1.02
ATTTCCTGCT | 0.989
ATTTCTGAC | 1.02
ATTTGAATT | 0.988
ATTTGAGGC | 1.01
ATTTGATCTT | 1.01
ATTTGCGCTG | 0.987

Sequence | switch fluorescence ratio
ATTTGCGGAA | 1.03
ATTTGCTGGA | 1.04
ATTTGGCTAC | 1.08
ATTTGTCATT | 1.01
ATTTTAACCC | 1.05
ATTTTGGATC | 0.981
ATTTTGGCGC | 0.981
ATTTTGTAGA | 1.07
ATTTTGTTGA | 0.987
ATTTTTCAT | 0.976
ATTTTTCGCT | 0.981
ATTTTTGCTC | 1.04
CAAAAACGGG | 1.03
CAAAAAGTCT | 1.18
CAAAAGAGGG | 1
CAAAATACTT | 1.21
CAAACCGTCG | 1.11
CAAACGCCGC | 1.81
CAAACGGAGA | 0.983
CAAACGGGAC | 1.32
CAAACTAATT | 0.96
CAAACTATAT | 1.02
CAAACTCCCG | 1.24
CAAAGAAGCG | 1.05
CAAAGATAGC | 0.996
CAAAGATGTA | 0.948

Sequence | switch fluorescence ratio
CAAAGGCTAC | 1.27
CAAAGTCCAG | 1.02
CAAAGTCCCG | 0.997
CAAAGTCCT | 1.05
CAAAGTTCAC | 1.04
CAAATCATTC | 1.05
CAAATGAAC | 1.58
CAAATGAGGA | 1.03
CAAATGGAGC | 1.03
CAAATGTCTT | 0.984
CAAATGTGCG | 0.98
CAAATTAGTA | 0.976
CAAATTCCCT | 1.1
CAAATTGATT | 0.971
CAACAAGTAA | 1.02
CAACATATCT | 1.01
CAACATTAGG | 1
CAACATTTTT | 0.988
CAACCGGATG | 1.01
CAACCGTTGC | 1.7
CAACGCGGGA | 1.07
CAACGGATGA | 1.02
CAACTATGTA | 1.02
CAAGAACCGG | 1.01
CAAGACATAT | 0.987
CAAGAGGTGT | 1.06

Sequence | switch fluorescence ratio
CAAGAGTTAA | 0.981
CAAGATCCTC | 1.03
CAAGATTGAA | 1.03
CAAGCACGTG | 1.03
CAAGCATTCC | 1.41
CAAGCGAAGA | 1.02
CAAGCGAATG | 1.02
CAAGCTGACC | 1.16
CAAGCTTCAG | 0.983
CAAGGAAATT | 0.995
CAAGGCGAAG | 1.02
CAAGGCTTGG | 0.983
CAAGGGGATC | 1.85
CAAGGTTAAT | 1.1
CAAGGTTTGT | 0.984
CAAGTAAGGT | 1.03
CAAGTAGTCG | 1.03
CAAGTATTCC | 1.01
CAAGTATTCT | 0.965
CAAGTCTTAG | 0.994
CAAGTGATA | 1.01
CAAGTGTTGC | 1
CAAGTTGGTT | 0.941
CAAGTTGTTC | 1.04
CAATAATAGA | 0.986
CAATAATGGG | 0.991

Sequence | switch fluorescence ratio
CAATAGAACC | 1.01
CAATAGAGTA | 1.04
CAATATGGA | 1
CAATCACATG | 1.08
CAATCAGTAC | 1.21
CAATCCGGCG | 0.954
CAATCGATGC | 0.969
CAATCGGATT | 1.07
CAATCGTGGT | 1.03
CAATGAAGAT | 0.977
CAATGAATGT | 0.967
CAATGAGTCC | 1.04
CAATGGTAAT | 0.974
CAATTAGCGG | 1
CAATTAGGGC | 1.03
CAATTGCGGA | 1.09
CAATTGGAA | 0.982
CAATTTAAAA | 1.02
CAATTTATTC | 1.02
